# In PubChem BioAssay AID1347417 (National Center for Advancing Translational Sciences (NCATS), 2020):
# Among all 120,000 compounds or so, about 5,300 (4.4%) were called active. This list was built around the results that the source calls inconclusive (neither active nor inactive); the mix of calls is not that of the screen. Calls come from the whole dose curve; as a rule, active = well fitted inhibition curve with a large enough effect; inconclusive = small, poorly fitted or top-dose-only effect; inactive = no such curve, though single readings can be large or run the other way. Where the call is inconclusive, the potency comes from a doubtful curve fit.
# Test: qHTS Primary assay for Inhibitors of Plasmodium falciparum Dd2 growth in vitro; note: nearly all actives have a fitted effect of over 65% in size;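 for activity, negative = inhibition: plate controls were DMSO vehicle for no effect and reference drug for full effect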
# Settings: P. falciparum Dd2 growth, SYBR Green, 72 h; activity, negative = inhibition: at 28.9 µM (top of the series) unless noted; series mostly up to 28.9 µM
# Method in brief: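 Readout: SYBR Green fluorescence, 485 nm excitation, 535 nm emission, after ~16 h lysis at 37C. Before that, Dd2-infected red cells (2.5% hematocrit) grew 72 h with compound, 29 uM top final concentration.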
# Potency is the fitted concentration of half-maximal effect; tags give direction and shape of the fitted curve.
SMILES,Potency,"activity, negative = inhibition"
COc1cccc(CNC(=O)c2ccc(-n3c(C)cc4c3CCC(C)C4)cc2)c1 (stereo not given),"inconclusive: 10 µM [inhibitor, single point]",–
CCn1cc(-c2ccc(Cl)cc2)cc1C(=O)NCCCN1CCOCC1,"inconclusive: 17.8 µM [inhibitor, single point]",–
CC(C)NC(=O)c1ccc(NC(=O)N2CCCCc3ccccc32)cc1,"inconclusive: 15.8 µM [inhibitor, single point]",–
Cc1c(CN2CCN(c3ncc(F)cn3)CC2)[nH]c2ccc(F)cc12,"inconclusive: 15.8 µM [inhibitor, single point]",–
COc1cc(NC(=O)Cn2cc(C(=O)c3ccc(F)cc3)c(=O)c3ccc(C)nc32)cc(OC)c1,"inconclusive: 12.6 µM [inhibitor, partial curve, poor fit]",–
COc1ccc(C(=O)NCC(c2ccc3c(c2)OCO3)N2CCN(c3ccccc3F)CC2)cc1 (stereo not given),"inconclusive: 17.8 µM [inhibitor, single point]",–
N#Cc1ccc(CN2CCC(N3Cc4cccn4C3=O)CC2)cc1,–,inconclusive: -85% [inhibitor]
COc1ccc(-c2noc(CC3CCN(C(=O)Cc4ccccc4Cl)CC3)n2)cc1,inactive,–
O=C(C1CC=CCC1)N1CCC(C2CCNC2)CC1 (stereo not given),inactive,–
COc1ccc(CN2C=C(C(=O)OCc3noc(C4CCCCC4)n3)C(C)=NS2(=O)=O)cc1,inactive,–
CCOc1ccc(CN2CC(Oc3ccccc3C(=O)NC3CC3)C2)cc1,"inconclusive: 7.08 µM [inhibitor, partial curve, poor fit]",–
COc1cccc(N2C(=O)NC(=NC3CCCC3)C23CCN(Cc2ccccc2)C3)c1 (stereo not given),"inconclusive: 14.1 µM [inhibitor, partial curve, poor fit]",–
O=C(NCC(c1ccc(Cl)cc1)N1CCOCC1)c1ccccc1F (stereo not given),–,inconclusive: -43.1% [inhibitor] [at 0.594 µM]
CCOc1ccc(-c2nnc(SCC(=O)Nc3cccc(OC)c3)nc2-c2ccc(OCC)cc2)cc1,"inconclusive: 17.8 µM [inhibitor, single point]",–
CCOC(=O)c1c(NC(=O)c2nc(S(C)(=O)=O)ncc2Cl)sc(C(C)=O)c1C,"inconclusive: 5.62 µM [inhibitor, partial curve, poor fit]",–
O=C(Cn1ccnc1)N1CCc2c(n(CCOc3ccccc3)n(-c3ccccc3)c2=O)C1,inactive,–
O=C(Cn1cccc1-c1nc(-c2ccccc2)no1)Nc1ccc(Cl)cc1,inactive,–
Cc1ccc(NC(=O)c2ccc(Cn3ccn4nc5c(c4c3=O)CCCC5)cc2)cc1C,"inconclusive: 2.82 µM [inhibitor, full curve, poor fit]",–
O=C1c2cc(N3CCOCC3)nc(-c3ccc(CO)cc3)c2CN1Cc1ccccc1,"inconclusive: 3.98 µM [inhibitor, partial curve, poor fit]",–
CN1CC(=O)N(C2CCC2)Cc2c1ncnc2N1CCC(Cc2ccccc2)CC1,"inconclusive: 8.91 µM [inhibitor, single point]",–

SMILES,Potency,"activity, negative = inhibition"
COCCN1CCC(N2CCN(S(=O)(=O)c3cccc(C)c3)CC2)C1=O (stereo not given),inactive,–
O=C1CCN(C(=O)c2ccccc2)CCCC(C(=O)NCc2cccc(C(F)(F)F)c2)CCN1 (stereo not given),inactive,–
CCN1CC(c2ccccc2)CC2(CCN(C(=O)CCn3cccn3)CC2)C1 (stereo not given),"inconclusive: 20 µM [inhibitor, partial curve, poor fit]",–
Cc1nn(C)c(C)c1CCC(=O)N1CC2CC(C1)[C@H]1CCCC(=O)N1C2 (stereo not given in full),inactive,–
COc1ccc(C(=O)N2CCC3(CC2)NC(=O)N(c2ccccc2)N3)cc1F,"inconclusive: 20 µM [inhibitor, single point]",–
O=C(CC1=CCCCC1)N1CCC2(CC1)CN(c1ccncn1)CC2CO (stereo not given),inactive,–
COc1cccc(-n2c(SCC(=O)Nc3c(C)cc(C)cc3C)nc3c([nH]c4ccccc43)c2=O)c1,"inconclusive: 10 µM [inhibitor, single point]",–
O=C(Cc1ccc(F)cc1)NCc1ccc2c(c1)CCN2C(=O)c1ccc(F)cc1,"inconclusive: 4.47 µM [inhibitor, partial curve, poor fit]",–
CCOC(=O)N1CCc2c(sc3c2c(=O)n(-c2ccccc2C(F)(F)F)c(=O)n3Cc2ccccc2C)C1,"inconclusive: 1.12 µM [inhibitor, full curve, poor fit]",–
COCCn1ncc(N2CCC(NC(=O)c3ccc(OC)nc3)CC2)cc1=O,"inconclusive: 17.8 µM [inhibitor, single point]",–
COc1cccc(CNC(=O)c2ccc(-c3nc(COc4ccccc4)c(C)o3)cc2)c1,inactive,–
O=C(Nc1sc2c(c1C(=O)NCc1cccnc1)CCCC2)c1cc(=O)c2ccccc2o1,"inconclusive: 2 µM [inhibitor, single point]",–
CCOC(=O)c1c(-c2ccccc2)oc2ccc(N(C(C)=O)S(=O)(=O)c3ccc(CC)cc3)cc12,"inconclusive: 0.0891 µM [inhibitor, partial curve, poor fit]",–
CCc1nc2c(NS(=O)(=O)c3cccnc3)cccn2n1,inactive,–
COc1cccc([S+](=O)([O-])N2CCC3(CC2)CC(=O)Nc2ccccc2O3)c1,inactive,–
COc1ccc(-c2nc3cc(C)ccc3cc2CN2CCC(NC(C)=O)C2)cc1 (stereo not given),"inconclusive: 10 µM [inhibitor, partial curve, poor fit]",–
COC(=O)C1=C(C)N=C2SC=C(CC(=O)N3CCCC3)N2C1c1cccc(OC)c1OC (stereo not given),"inconclusive: 2.82 µM [inhibitor, partial curve, poor fit]",–
COc1ccc(CCNC(=O)c2ccc3c(c2)N(Cc2ccc(F)cc2)C(=O)CS3)cc1OC,"inconclusive: 17.8 µM [inhibitor, single point]",–
Cc1cccc(OCCc2noc(C3CCN(C(=O)CN4CCCCCC4)C3)n2)c1 (stereo not given),"inconclusive: 2.82 µM [inhibitor, single point]",–
Cc1cccc(-c2nc(CCNC(=O)Cc3ccccc3)cs2)c1,"inconclusive: 11.2 µM [inhibitor, single point]",–
